Experimental findings from the RNAGym collection of RNA variant scans (doi:10.1073/pnas.2313332121) are described below.

Variants at the background level are over-represented here.

Sequences and labels used below:
B1: TPR 5TU (parent)
chain: GGAUCUUCUCGAUCUAACAAAAAAGACAAAUCUGCCACAAAGCUUGAGAGCAUCUUCGGAUGCAGAGGCGGCAGCCUUCGGUGGCGCGAUAGCGCCAACGUUCUCAACUAUGACACGCAAAACGCGUGCUCCGUUGAAUGGAGUUUAUCAUG

In this data set the parent is B1. Description: polymerase ribozyme fitness, log enrichment relative to wild type (log ratio); higher = more active; in vitro selection for triplet polymerase activity. The gist of the method:
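Only genotypes with ≥10 input reads and ≥1 read per output were kept after Illumina sequencing of input and output libraries. These libraries were PCR-built, transcribed mutants of each subunit of a heterodimeric triplet polymerase ribozyme, each put through one triplicate in vitro selection round with frozen incubation at −7 °C, gel excision of extended constructs, streptavidin-bead capture and RT-PCR. Fitness is a logarithmic ratio of genotype enrichment to wild-type enrichment, from inverse-variance-weighted replicate averages, with the logarithm in base 2.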
As to GGAUCUUCUCGAUCAAACAAAAAAGACAAAUCUGCCACAAAGCUUGAGAGCAUCUUCGGAUGCAGAGGCGGCAGCCUUCGGUGGCGCGAUAUCGCGAACGUUCUGAAGUAUGACACGGAAAACGCGUGCUCCGUUGAAUGAAGUUUAUCAUG [U15A G92U C96G C105G C108G C118G G141A], the “polymerase ribozyme fitness (log ratio)” value is ≤ -4.2.
For the variant GGAUCUUCUCGAUCAAACAAAAAAUACAAAUCUGCCACAAAGCUUGAGAGCAUCGUAGGAUGCAGAGGCGGCAGCAUUCGGUGGAGCGAUAGCGCCAACGUUCUCAACUAUGACACGCAAAACGCGUGCUCCGUUGGAUGGAGUUUAUCAUG [U15A G25U U55G C57A C76A C85A A137G], the “polymerase ribozyme fitness (log ratio)” value was ≤ -4.2.
Regarding GGAUCUUCUCGAUCCAACAAAAAAGACAAAUCUGCCACAAAGCUUGAGAGCAUCUUCGGAUGCAGAGGCGGCAGCCUUCGGUGGCACGAUAGCGCCAACGUUGUGAACUAUGACACGCAGAACGCGUGCUCCUUUGAAUGGUGUUUAUCAUG [U15C G86A C103G C105G A120G G133U A142U], the “polymerase ribozyme fitness (log ratio)” value is ≤ -4.2.
Then GGAUCUUCUCGAUCAAACAAAAAAGACAAAUCUGCCACAAAGCUUGAGAGCAUCUUCGGAUGCAGAGGCGGCAGCCUUCGGUGGCGCGAAAGCGUCAACGUUCUCAACUAUGACACGCAAUACGCGAGCUCCGUUGAAUGGAGUUUAUCAUG [U15A U90A C95U A121U U127A], with ≤ -4.2; and GGAUCUUCUCGAUCCAAUAAAAAAGACAAAUCUGCCACAAAGCUUGAGAGCAUCUUCGGAUGCAGAGGCGGCAGCCUUCGGUGGGGCGAUAGCGCCAACGUUCUCAACUAUGACACGUAAAACGCGUGCUCCGUUUAAUGGAGUUUAUCAUG [U15C C18U C85G C118U G136U], with -3.19; and GGAUCUUCUCGAUCCAACAAAAAAGACAAAUCUGCCACAGAGCUUGAGAGCAUCUUCGGAUGCAGAAGCGGCAGCCUUCGGUGGCGCGAUAGCACCAACAUUCUCAUCUAUGACACGCAAAACGCGUGCUCCGUUGAAUGGAGUUUAUCAUG [U15C A40G G67A G94A G100A A107U], with ≤ -4.2.
As to GGAUCUUCUCGAUCCAACAAAAAAGACAAAUCUGCCAUAAAGCUUGAGGGCAUCUUCGGAUGCAGAGGCGGCAGCCUUCGGUGGCGCGAUAGCGCCAACGUUGUCAACUAUGACACGCAAAACGCGUGCUCCGUUGAAUGUAGUUUAUCAUG [U15C C38U A49G C103G G141U], the “polymerase ribozyme fitness (log ratio)” value is ≤ -4.2.
On to GGAUCUUCUCGAUCCAACCAAAAAGACAAAUCUGCCACAAAGCUUGAGAGCAUCUUCGGAUGCAGAGGCGGCAGCCUUCGGUGGUGUGAUAGCGCCAACGUUCUCAACUAUGACACGCAAAACGCGUGCUCCGUUGAAUGGAGUUUAUCAUG [U15C A19C C85U C87U], for which the “polymerase ribozyme fitness (log ratio)” value came out at 0.246.
As for GGAUCUUCUCGAUCAAACAAAAAAGACAAAUCUGCCACAAAGCUUGAGAGCAUCUUUGGAUGAAGAGACGGCAGCCUUCGGUGGCGUGAUAGCGCCAACGUUCUCAACUAUGACACGCAAAUCGCGUGCUCCGUUGAAUGGAGUUUAUCAUG [U15A C57U C63A G68A C87U A122U], the figure is ≤ -4.2; as for GGAUCUUCUCGAUCCAACAAAAAAGACGAAUCUGCCACAAAGCUUGAGAGAAUCUUCGGAUGCAGAGGCGUCAGCCUUCGGUGGCGCGAUAGCGUCAACGUUCUCAACUAUGACACGCAAAACGCGUGCUCCUUUGAAUGGAGUGUAUCAUG [U15C A28G C51A G71U C95U G133U U145G], ≤ -4.2; as for GGAUCUUCUCGAUCCAACAAAAAAGACAAAUCUGCCACAAAGCUUGAGAGCAUCUUCGUAUGCAGAGGCGGCAGCCUUCGGUGGCGCGAUAGCGGCAACGUUCUCAACUAUGGCACGCAAAACGCGUGCUCCGUUCAAUGGAGUUUAUCAUG [U15C G59U C95G A113G G136C], ≤ -4.2.
On to GGAUCUUCUCGAUCCAACAAAAAAGACAAAUCUGCCACAAGGCUUGAGAGCAUCUUCGGAUGCAGAGGAGGCAGCCUUCGGUGGCGAGAUAGCGCCAACGUUCUCAACUAUGACACGCAAAACGCGUGCUCCGUUGAAUGGAGUUGAUCAUU [U15C A41G C69A C87A U146G G152U], for which the “polymerase ribozyme fitness (log ratio)” value was ≤ -4.2.
Then GGAUCUUCUCGAUCGACAAAAAAAGACAAAUCUGCCACAAAGCUUGAGAGCAUCUUCGGAUGCAGAGGCGGCAGCCUUCGGUGGCGGGAUAGCGCCAACGUUCUCAACUGUGACCCGCAAAACGCGUGCUCCGUUGAAUGGAGUUUAUCAUG [U15G A17C C18A C87G A110G A115C], with ≤ -4.2; and GGAUCUUCUCGAUCCAACAAAAAAGACAAAUCUGCCACAAAGCUUGAGAGCAUCUUCGGAUGCAGAGGCGGCAGCCUUCGGUGGCGCGAUAGUGCCAACGUUCUCAACUAUGACACGCAAAUCGCGUGCUCCGUUGAAUGGAGUUUAUCAUG [U15C C93U A122U], with -0.873; and GGAUCUUCUCGAUCAAACAAAAAAAACAAAUCUGCCACAAAGCUUGAGAGCAUCUUCGGAUGCAGACGCGGCUGCCAUCGGUGGCGAGAUAGCGCCAACGUUCUCAACUAUGACACGCAAAACUCGUGCUCCGUUGAAUGGACUUUAUCAUG [U15A G25A G67C A73U U77A C87A G124U G143C], with ≤ -4.2.
As for GGAUCUUCUCGAUCAAACAAAAAAGACAAAUCUGCAACAAAGCUUGAGUGCAUCAUCGGCUGCAGAGACGGCAGCCUUCGGUGGCGGGAUAGCGCCAACGUUCUCAACUAUGACACGUAAAACGCGUGCUCCGUUGAAUGCAGUUUAUGAUG [U15A C36A A49U U55A A60C G68A C87G C118U G141C C149G], the figure is ≤ -4.2; as for GGAUCUUCUCGAUCAAACAAAAAAGACAAAUCUGCUACAAAGCUUGAGAGCAUCUUCGGAUGCAGAGGCGGCAGCCUUCGGUGGCGUGAUAGCGCCAACGUUCUCAACUAUGACACGCAAAACUCGUGCUCCGUUGCAUGGAGUUUAUCAUG [U15A C36U C87U G124U A137C], -4.03; as for GGAUCUUCUCGAUCAAACAAAAAAGACAAAUCUGCCACAAAGCUUGAGAGCAUCUUCGGAUGCAGAGGCGGCCGCCUUCGGUGGCGCGAUAGCACCAACGUUCUCAACUAUGACACGCAAAACGCGUGCUCCGUUGAAUGGAGUUUAUCAUG [U15A A73C G94A], -3.39.
Turning to GGAUCUUCUCGAUCCAACAAAAAAGACAAAUCUGCCACAAAGCUUGAGAACAUUUUCGGAUGCAGAGGCGGCAGCCUUCGGUGUCGCGAUCGCGCCAACGUUCUCAACUAUGACACGAAAAACGCGUGCUCCGUUGAAUGGAGAUUAUGAUG [U15C G50A C54U G84U A91C C118A U144A C149G], the “polymerase ribozyme fitness (log ratio)” value is ≤ -4.2.
